SMILES strings stand for the structures. Among all 45,000 compounds or so, about 200 (0.44%) were called active. About 7% were inconclusive and are not listed. Calls come from the whole dose curve; as a rule, active = well fitted activation curve with a large enough effect; inconclusive = small, poorly fitted or top-dose-only effect; inactive = no such curve, though single readings can be large or run the other way. The list shows a part of the results.

The test can be described thus: qHTS of TDP-43 Inhibitors: NCGC Sytravon Library Screen. Note: 0% is about no effect; nearly all actives have a fitted effect of over 55% in size. The following applies: yeast TDP-43 toxicity rescue, BacTiter-Glo growth, 24 h; series mostly up to 46.1 µM; growth rescue (activation): at the top concentration. The method, boiled down:
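TDP-43-expressing yeast, pregrown in raffinose, seeded at OD600 0.02 in galactose medium with compound for 24 hr at 30 deg C. Growth read by BacTiter-Glo luminescence, so rescue of toxicity appears as activation.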
A general note: Quantitative high-throughput screening tests each substance at several concentrations.
Regarding `Cn1c(N)c(C(=O)COC(=O)Cc2ccc(Br)cc2)c(=O)n(C)c1=O`, the “growth rescue (activation)” value is inactive: -3%.

Regarding `OC(CNCc1ccccn1)c1ccccc1` (stereo not given), the “growth rescue (activation)” value is inactive: 2.96%.

On to `Cc1cccc(OCC(=O)NNC(=O)CCN2CCN(c3ccccc3)CC2)c1C`, for which the “growth rescue (activation)” value was inactive: -6.85%.

For `Cc1cccc(C(=O)Nc2ccc(C(=O)/C=C/c3cccnc3)cc2)c1`, the “growth rescue (activation)” value is inactive: 5.45%.

For the compound `O=C(Cn1cnc2ccccc2c1=O)Nc1ccc2c(c1)OCO2`, the “growth rescue (activation)” value was inactive: -4.64%.

Take `COc1ccc(C(=O)N/C(=C\c2ccccc2)C(=O)N2CCOCC2)cc1`: the “growth rescue (activation)” value was inactive: -16.3%.

In the case of `CCOC(=O)c1c(C)[nH]c(C(=O)NCCc2ccc(OC)c(OC)c2)c1C`, the “growth rescue (activation)” value is inactive: 30.5%.

As to `Cc1noc(C(=O)Nc2cc(Cl)ccc2O)c1Cl`, the “growth rescue (activation)” value is inactive: 10.1%.

With `O=C(Nc1ccc([N+](=O)[O-])cc1)c1ccccc1`, the “growth rescue (activation)” value is inactive: 3.87%.

Regarding `Cc1ccc(S(=O)(=O)NCCC(=O)NNC(=O)COc2ccc(Br)cc2)cc1C`, the “growth rescue (activation)” value is inactive: 16%.

On to `CCn1c(=O)cc(OCC(=O)NCCc2cccc(C)c2)c2ccccc21`, for which the “growth rescue (activation)” value was inactive: 7.61%.

Regarding `COCCn1c(CCC(=O)O)ccc1-c1cccs1`, the “growth rescue (activation)” value is inactive: -20.8%.

Turning to `O=C(/C=C/c1ccc(F)cc1)NNC(=O)CCN1CCN(Cc2ccccc2)CC1`, the “growth rescue (activation)” value was inactive: -7.24%.

As to `CCCNC(=O)C1(C)CCN1C(=O)C1(c2ccccc2)CC1` (stereo not given), the “growth rescue (activation)” value is inactive: 0.845%.

Turning to `CC(=O)C1=C(C)Nc2ncnn2C1c1ccccc1F` (stereo not given), the “growth rescue (activation)” value was inactive: 7.22%.

`Cc1ccc(C(=O)N[C@H](C(=O)OCc2cc(=O)n3c(n2)sc2ccccc23)C(C)C)cc1`: the “growth rescue (activation)” value is inactive: -1.49%.

In the case of `CCCCN(C(=O)/C=C/c1ccc(OCC(C)C)c(OCC)c1)c1c(N)n(CCC)c(=O)[nH]c1=O`, the “growth rescue (activation)” value was inactive: -9.43%.

As for `COCCn1c(SCC(=O)Nc2ccc(F)cc2)nc2c(oc3ccccc32)c1=O`, the “growth rescue (activation)” value was inactive: 4.99%.

On to `CC(=O)[C@H]1CCC2C3CC=C4C[C@@H](O)CC[C@]4(C)C3CC[C@@]21C` (stereo not given in full), for which the “growth rescue (activation)” value was inactive: 6.07%.

In the case of `CN(C)c1cc(NC(=O)CNC(C)(C)CC(C)(C)C)c2ccccc2n1`, the “growth rescue (activation)” value is inactive: -4.63%.

With `COc1ccc(CCNc2cc(C)nc3c(-c4ccccc4)cnn23)cc1OC`, the “growth rescue (activation)” value is inactive: 9.45%.

In the case of `CC(C)N1C(=O)CSC1c1ccc(Br)cc1` (stereo not given), the “growth rescue (activation)” value is inactive: 5.36%.

As to `COc1ccc(/C=C/C(=O)Nc2cccc(S(=O)(=O)N3CCCC3)c2)cc1OC`, the “growth rescue (activation)” value is inactive: 2.96%.

In the case of `COc1ccc(N2CC(C(=O)N/N=C/c3ccccc3)CC2=O)cc1` (stereo not given), the “growth rescue (activation)” value was inactive: -5.49%.

In the case of `COCCn1c(SCC(=O)NC(C)c2ccc(F)cc2)nc2ccccc21` (stereo not given), the “growth rescue (activation)” value is inactive: -54.1%.

In the case of `O=C(NCCc1ccccc1)C1CCN(c2ncccn2)CC1`, the “growth rescue (activation)” value was inactive: 3.45%.

`CN1CCN(S(=O)(=O)c2cccc(C(=O)Nc3cc(C(N)=O)cc(C(N)=O)c3)c2)CC1`: the “growth rescue (activation)” value is inactive: -0.69%.

As to `CC1CC1C(=O)OCC(=O)NC(=O)c1ccc(C(C)(C)C)cc1` (stereo not given), the “growth rescue (activation)” value is inactive: -5.14%.

For `O=[N+]([O-])c1ccccc1SNc1ccc(Br)cn1`, the “growth rescue (activation)” value was inactive: 6.94%.

In the case of `COc1ccccc1NC(=S)NNC(=O)c1ccncc1`, the “growth rescue (activation)” value is inactive: -0.968%.

Consider `COc1cccc(N2CCN(C(=O)CC(NC(=O)c3ccccc3)c3ccccc3)CC2)c1` (stereo not given), for which the “growth rescue (activation)” value is inactive: 23.6%.

As for `CSc1ccccc1C(=O)C1CCCN(C(=O)c2csnn2)C1` (stereo not given), the “growth rescue (activation)” value was inactive: 9.2%.

For `O=C(CN1CCCCC1)N1CCN(S(=O)(=O)c2ccccc2)C1`, the “growth rescue (activation)” value is inactive: -10.5%.

Consider `OC[C@@H]1CN(Cc2ccccc2)C[C@H](n2cnc3c(N4CCCC4)ncnc32)O1`, for which the “growth rescue (activation)” value is inactive: 0.431%.

With `Cc1ccc2nc(NC(=O)C3CC3C)sc2c1` (stereo not given), the “growth rescue (activation)” value is inactive: 19.3%.

As for `Cc1[nH]nc(NNC(=O)c2ccccc2)c1[N+](=O)[O-]`, the “growth rescue (activation)” value is inactive: 3.17%.

On to `NC(=S)N/N=C1\CC(c2ccc3c(c2)OCCO3)Oc2ccc(F)cc21` (stereo not given), for which the “growth rescue (activation)” value is inactive: 9.2%.

`CCCCC(=O)NC(c1ccc(N(C)C)cc1)c1ccc2cccnc2c1O` (stereo not given): the “growth rescue (activation)” value was inactive: 25.5%.

As to `CC(C)C(OC(=O)c1nsc(Cl)c1Cl)C(=O)NC1CCCCC1` (stereo not given), the “growth rescue (activation)” value is inactive: 7.95%.

Take `O=C(Nc1ccc(-c2nnc3n2CCCCC3)cc1)c1cnccn1`: the “growth rescue (activation)” value was inactive: 1.53%.

Take `CC(C)(C)C(=O)Nc1ccc(Cc2ccncc2)cc1`: the “growth rescue (activation)” value was inactive: -8.32%.

`CC(=O)Nc1ccc(C(=O)OCCc2ccccc2)cc1`: the “growth rescue (activation)” value was inactive: -9.39%.

`CC(C)(C)NC(=S)NCc1ccc2c(c1)OCO2`: the “growth rescue (activation)” value is inactive: 2.72%.

With `O=C(CCC1CCCN(C(=O)c2cccs2)C1)N1CCN(c2ccccn2)CC1` (stereo not given), the “growth rescue (activation)” value is inactive: 9.87%.

As for `CC(C)Nc1nc(-c2ccccc2CO)c2sccc2n1`, the “growth rescue (activation)” value was inactive: 23.9%.

Turning to `Cc1cnc(C(=O)OCC(=O)NC2CCCCCCC2)cn1`, the “growth rescue (activation)” value is inactive: 10.6%.

In the case of `COc1cccc2cc(C(=O)N(C)C3CCN(C)CC3)c(=O)oc12`, the “growth rescue (activation)” value is inactive: -5.95%.

On to `O=C(CCNC(=O)c1ccc([N+](=O)[O-])cc1)NCCc1ccccc1`, for which the “growth rescue (activation)” value is inactive: 1.61%.

As for `CN1CC(C(=O)O)Cc2c1ccc1ccccc21` (stereo not given), the “growth rescue (activation)” value was inactive: -41.3%.

As to `O=C(COC(=O)/C=C/c1ccc([N+](=O)[O-])cc1)NC(c1ccccc1)c1ccccc1`, the “growth rescue (activation)” value is inactive: 19.2%.

For the compound `COc1ccc(NC(=S)NC23CN4CN(CN(C4)C2)C3)cc1`, the “growth rescue (activation)” value was inactive: 11.1%.

On to `O=C(NCc1ccccn1)C(=O)N/N=C/c1ccccc1O`, for which the “growth rescue (activation)” value is inactive: -6.71%.

Regarding `COc1ccc(NC(=O)c2cccc(N3C(=O)C4C5C=CC(C6CC56)C4C3=O)c2)cc1` (stereo not given), the “growth rescue (activation)” value was inactive: 17.7%.

Take `COc1cc(NC(=O)C/C(C)=N/NC(=O)C(OC)c2ccccc2)c(OC)cc1Cl` (stereo not given): the “growth rescue (activation)” value was inactive: -6.84%.

On to `CCOc1ccccc1NC(=O)N1CCCC1C(=O)NCc1ccco1` (stereo not given), for which the “growth rescue (activation)” value is inactive: 0.221%.

For the origin of these results see PubChem BioAssay AID1347073 (National Center for Advancing Translational Sciences (NCATS), 2019).
